Whole data set: some 33,000 sequences, median “E-score (-0.5 to 0.5)” near -0.054, cut for the highest 2% near 0.35. The list shows a part of the results.

The experiment deals with T1, Stb5 (UniProt P38699).
T1 sequence: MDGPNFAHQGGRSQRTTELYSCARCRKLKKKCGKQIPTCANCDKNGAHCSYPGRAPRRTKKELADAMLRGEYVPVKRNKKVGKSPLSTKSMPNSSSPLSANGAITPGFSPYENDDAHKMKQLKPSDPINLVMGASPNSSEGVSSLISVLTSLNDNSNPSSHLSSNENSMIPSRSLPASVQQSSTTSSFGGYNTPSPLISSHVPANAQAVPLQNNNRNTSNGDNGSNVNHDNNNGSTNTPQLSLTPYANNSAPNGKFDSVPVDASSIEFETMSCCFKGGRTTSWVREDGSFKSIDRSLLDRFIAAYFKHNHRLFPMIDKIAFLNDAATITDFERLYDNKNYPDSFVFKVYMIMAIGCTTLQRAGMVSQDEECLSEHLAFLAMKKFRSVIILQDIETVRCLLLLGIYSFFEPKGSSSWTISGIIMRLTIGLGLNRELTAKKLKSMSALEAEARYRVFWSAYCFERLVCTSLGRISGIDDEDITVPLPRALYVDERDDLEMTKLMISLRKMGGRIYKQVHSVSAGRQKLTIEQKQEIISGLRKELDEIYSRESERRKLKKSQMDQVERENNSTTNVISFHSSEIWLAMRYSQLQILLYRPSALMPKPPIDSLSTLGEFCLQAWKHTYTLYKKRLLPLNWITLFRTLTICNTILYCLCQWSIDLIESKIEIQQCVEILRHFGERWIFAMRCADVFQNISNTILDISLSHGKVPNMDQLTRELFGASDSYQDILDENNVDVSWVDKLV
In words: PBM E-score (8-mer binding enrichment) (E-score (-0.5 to 0.5)); higher = stronger / more preferred TF binding; most listed sequences are background and not binding sites. The conditions noted are these: protein concentration: 200 nM; construct: GST-full length. How it is done:
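Universal 'all 10-mer' protein binding microarrays (Agilent AMADID 015681) probed with GST-tagged S. cerevisiae TFs (full-length or DBD) made by in vitro transcription/translation (PURExpress), about 100-200 nM. Bound TF was detected with fluorescent anti-GST. Each ungapped 8-mer (which stands for itself and its reverse complement) is scored by the PBM enrichment score (E-score), a modified Wilcoxon-Mann-Whitney statistic from -0.5 to +0.5, computed with the Universal PBM Analysis Suite. Scale: above 0.35 generally sequence-specific binding.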
Regarding CAAACTTC, the “PBM E-score” value was -0.0467.
Consider CCCTGGGC, for which the “PBM E-score” value was -0.205.
For the sequence TCGAGACA, the “PBM E-score” value was -0.238.
Next, CCGGGGCC: 0.202; CCCCCCCC: -0.388.
As to AGTTTTCG, the “PBM E-score” value is -0.0129.
As for ATACTTAG, the “PBM E-score” value is -0.142.
Take GGCCTGCA: the “PBM E-score” value was found to be 0.0378.
GGGGCAAC: the “PBM E-score” value is -0.114.
Take CCCTCATA: the “PBM E-score” value was -0.151.
Regarding TACCACCA, the “PBM E-score” value amounted to 0.112.
With ATTTCTGA, the “PBM E-score” value is -0.0715.
With GCATGGGC, the “PBM E-score” value is -0.149.
Take CTAAACGC: the “PBM E-score” value came to 0.113.
As for AAGCCCCC, the figure is 0.00224; as for ACCGTAAC, 0.182.
Turning to AGACTAAC, the “PBM E-score” value amounted to 0.00795.
As for GGGAGTTA, the “PBM E-score” value turned out to be 0.146.
CGGACCAA: the “PBM E-score” value was determined as 0.376.
Regarding CGGGTCTC, the “PBM E-score” value was found to be 0.151.
With AACCAGAT, the “PBM E-score” value is -0.121.
As for GTTTCTGA, the figure is -0.0982; as for TGCTCGAA, -0.119.
Regarding ATAGAATG, the “PBM E-score” value is -0.135.
Next, CGCGAGCA: 0.0328; CCCTAAAC: 0.0771; AGGGGCTA: -0.0747.
Next, TCACGCAA: -0.0766; CGTCACTC: 0.0223.
In the case of CGTGCCAA, the “PBM E-score” value is -0.081.
GAGCTGTA: the “PBM E-score” value was -0.121.
On to GGCGGCAC, for which the “PBM E-score” value was 0.343.
Regarding CCCTGTTA, the “PBM E-score” value was -0.0434.
As for AGTGGTGG, the “PBM E-score” value was -0.255.
Next, AAATAAAT: 0.169; CATGTGCG: -0.0657.
Regarding TATAGATA, the “PBM E-score” value is -0.114.
Regarding CTGGGTCA, the “PBM E-score” value is -0.166.
As for ATTGTAAA, the figure is 0.132; as for ATTCAACG, 0.0103; as for ACCTATAC, -0.0291.
In the case of ATGGACTC, the “PBM E-score” value is -0.103.
For the sequence GATATGAC, the “PBM E-score” value came out at 0.1.
Next, GGACTCCC: -0.0915; AAATACAG: -0.102.
For the sequence AATGTGGT, the “PBM E-score” value is -0.0348.
For TAACAAGA, the “PBM E-score” value is -0.0234.
As for AATAACCC, the figure is 0.256; as for CGGACTCA, 0.411.
As for ATGCAGTG, the figure is -0.262.
For the sequence AATTCGCT, the “PBM E-score” value was 0.0277.
Next, AGCGTGAG: -0.169; AGGGCTTA: 0.12.
ACCTTCCA: the “PBM E-score” value was -0.0713.
As for ACGACCTA, the “PBM E-score” value is -0.145.
For the sequence AGTCTACA, the “PBM E-score” value is -0.19.
Consider AGGGGGCG, for which the “PBM E-score” value was -0.00816.
Next, CAACTGTG: -0.157; AGTTCAAC: -0.0908; CATACGAC: -0.108.
As for CTCCAACA, the figure is -0.107.
For the sequence ATACTCAA, the “PBM E-score” value was -0.166.
For CATTAGGC, the “PBM E-score” value is -0.124.
CATGCCGA: the “PBM E-score” value was 0.168.
For the sequence CTCTATAC, the “PBM E-score” value came to 0.0661.
For the sequence AGCGCTAA, the “PBM E-score” value turned out to be 0.0869.
With ACCGTTTA, the “PBM E-score” value worked out at 0.241.
On to AAGTTAAG, for which the “PBM E-score” value came to 0.0192.
Next, ATTAGTGG: -0.0717.
As for TCTAGAAA, the figure is -0.071; as for TAATACGA, -0.0227; as for AGACCTAA, -0.0689.
Consider CAATCCCC, for which the “PBM E-score” value worked out at 0.19.
As for ATTTAGAG, the figure is -0.138; as for AAGCGTTA, -0.105; as for CAATTTGC, -0.182.
With GCCCTTCC, the “PBM E-score” value was -0.176.
Next, AGTGAGTC: -0.196; ACCTCAGT: -0.273; AGGGTCGA: -0.0825.
For AGCAGTGA, the “PBM E-score” value is -0.0161.
As for CCTCAAAG, the figure is -0.193; as for ATGGTGGA, -0.209; as for CCGTTTAG, 0.179.
As for AACTGTCT, the figure is -0.224; as for ATATGCAG, -0.099.
